# The full ranking holds about 81,000 sequences; the median of “one-hybrid fitness for binding parS DNA” is about -0.17, and the highest 2% start at about 0.51. The list shows a part of the results.
# B1: Caulobacter ParB omega fusion; a variant is named by its letters at X, in order, B8GW30 (parent)
# chain: MESVVVGEPGMSEGRRGLGRGLSALLGEVDAAPAQAPGEQLGGSREAPIEILQRNPDQPRRTFREEDLEDLSNSIREKGVLQPILVRPSPDTAGEYQIVAGERAWRAAQRAGLKTVPIMVRELDDLAVLEIGIIENVQRADLNVLEEALSYKVLMEKFERTQENIAQTIGKSXSHVANXMRLLXLPDEVQSYLVSGELTAXHARAIAAAADPVALAKQIIEGGLSVRETEALARKAPNLSAGKSKGGRPPRVKDTDTQALESDLSSVLGLDVSIDHRGSTGTLTITYATLEQLDDLCNRLTRGI
# Variants of: B1
# Assay: one-hybrid fitness for binding parS DNA (scaled: cognate 1, non-cognate 0); higher = stronger binding
# Settings: with parS DNA site
# Outline: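 Caulobacter ParB libraries with four specificity codons randomised were screened by bacterial one-hybrid selection in the E. coli USO strain, using a HIS3 reporter whose site lies 19 bp from the promoter. Selection ran for 48 hours at 37°C on M9 lacking histidine, with 0.1 mM IPTG and 5 mM 3-AT. Plasmids were Illumina-sequenced before and after selection, three replicate libraries were pooled, and variants with under 10 reads were dropped. Fitness is the log change in each variant's read ratio to wild type, rescaled against the cognate and non-cognate sites.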
row,Variant,one-hybrid fitness for binding parS DNA
1,TSCM,≤ 0.2
2,HTVN,≤ 0.2
3,PCLA,≤ 0.2
4,ARER,≤ 0.2
5,ILPL,≤ 0.2
6,FWRR,≤ 0.2
7,TSCK,≤ 0.2
8,MSED,≤ 0.2
9,RKKE,≤ 0.2
10,GTRT,≤ 0.2
11,VHGI,≤ 0.2
12,DSSG,≤ 0.2
13,QRQC,≤ 0.2
14,CVHI,≤ 0.2
15,YYKT,≤ 0.2
16,FPRS,≤ 0.2
17,NDKL,≤ 0.2
18,MSTL,≤ 0.2
19,HHKP,≤ 0.2
20,VGPR,≤ 0.2
21,RKHV,≤ 0.2
22,SIHL,≤ 0.2
23,QTAA,≤ 0.2
24,TNLP,≤ 0.2
25,VSGS,≤ 0.2

row,Variant,one-hybrid fitness for binding parS DNA
1,QAYV,≤ 0.2
2,GLFR,≤ 0.2
3,YCQT,≤ 0.2
4,TRMD,≤ 0.2
5,PRIF,≤ 0.2
6,RIKQ,≤ 0.2
7,LYVQ,≤ 0.2
8,IDYS,≤ 0.2
9,WGHV,≤ 0.2
10,AISH,≤ 0.2
11,LMSQ,≤ 0.2
12,VEGS,≤ 0.2
13,YNLW,≤ 0.2
14,ESQM,≤ 0.2
15,RQQS,0.987
16,QYLG,≤ 0.2
17,AHPG,≤ 0.2
18,PKCK,≤ 0.2
19,NTIY,≤ 0.2
20,AWKR,≤ 0.2
21,GYPS,≤ 0.2
22,KRMI,≤ 0.2
23,HDAR,≤ 0.2
24,KYSA,≤ 0.2
25,TCPY,≤ 0.2

row,Variant,one-hybrid fitness for binding parS DNA
1,SLSI,≤ 0.2
2,DVDS,≤ 0.2
3,TQSC,≤ 0.2
4,TPKP,≤ 0.2
5,VFPC,≤ 0.2
6,QNKL,≤ 0.2
7,TSKD,≤ 0.2
8,YRHG,≤ 0.2
9,QAWE,≤ 0.2
10,SYVT,≤ 0.2
11,VLSV,≤ 0.2
12,RMGT,0.937
13,CNAS,≤ 0.2
14,KSQS,≤ 0.2
15,PFWV,≤ 0.2
16,EFPM,≤ 0.2
17,SGPG,≤ 0.2
18,FVYW,≤ 0.2
19,HGNI,≤ 0.2
20,APTA,≤ 0.2
21,SMPR,≤ 0.2
22,WVWF,≤ 0.2
23,RFYV,≤ 0.2
24,FIHV,≤ 0.2
25,DFGA,≤ 0.2

row,Variant,one-hybrid fitness for binding parS DNA
1,DPVF,≤ 0.2
2,LSVN,≤ 0.2
3,KEWT,≤ 0.2
4,KKQR,≤ 0.2
5,VLQL,≤ 0.2
6,IPAY,≤ 0.2
7,RKHG,0.925
8,TRKY,≤ 0.2
9,QCKV,≤ 0.2
10,SLLQ,≤ 0.2
11,TCHN,≤ 0.2
12,CIEG,≤ 0.2
13,MVLG,≤ 0.2
14,PSWE,≤ 0.2
15,ETYG,≤ 0.2
16,TINS,≤ 0.2
17,IDSV,≤ 0.2
18,MHWG,≤ 0.2
19,SHRR,≤ 0.2
20,SHDC,≤ 0.2
21,SYEC,≤ 0.2
22,LNAY,≤ 0.2
23,HYLD,≤ 0.2
24,DWSS,≤ 0.2
25,KMLF,≤ 0.2

row,Variant,one-hybrid fitness for binding parS DNA
1,TTKP,≤ 0.2
2,HQAP,≤ 0.2
3,KVTN,≤ 0.2
4,GAQG,≤ 0.2
5,NSCS,≤ 0.2
6,AIVR,≤ 0.2
7,DTTL,≤ 0.2
8,DNWS,≤ 0.2
9,IRRW,≤ 0.2
10,IRYA,≤ 0.2
11,ETLR,≤ 0.2
12,HFGY,≤ 0.2
13,QDNH,≤ 0.2
14,GTLG,≤ 0.2
15,CHCI,≤ 0.2
16,LTVG,≤ 0.2
17,PLHT,≤ 0.2
18,MSNG,≤ 0.2
19,TQLC,≤ 0.2
20,CQKF,≤ 0.2
21,PVCD,≤ 0.2
22,VMKA,≤ 0.2
23,HREG,≤ 0.2
24,ATNG,≤ 0.2
25,PFRR,≤ 0.2

row,Variant,one-hybrid fitness for binding parS DNA
1,FDPS,≤ 0.2
2,FRAW,≤ 0.2
3,PHER,≤ 0.2
4,QFNK,≤ 0.2
5,TTDP,≤ 0.2
6,FFTE,≤ 0.2
7,CAVK,≤ 0.2
8,VWAL,≤ 0.2
9,AAYR,≤ 0.2
10,NVGM,≤ 0.2
11,DRAG,≤ 0.2
12,LVHI,≤ 0.2
13,MEVG,≤ 0.2
14,TQHM,≤ 0.2
15,AVPP,≤ 0.2
16,QHVY,≤ 0.2
17,CWMS,≤ 0.2
18,QTRL,≤ 0.2
19,TMLQ,≤ 0.2
20,KDPN,≤ 0.2
21,IYYS,≤ 0.2
22,AHSY,≤ 0.2
23,NRPI,≤ 0.2
24,HDAT,≤ 0.2
25,RTRM,0.517

row,Variant,one-hybrid fitness for binding parS DNA
1,SYHF,≤ 0.2
2,RHPF,≤ 0.2
3,RRVI,≤ 0.2
4,DCLG,≤ 0.2
5,GPKE,≤ 0.2
6,YLGT,≤ 0.2
7,GPSR,≤ 0.2
8,LQAV,≤ 0.2
9,NHFP,≤ 0.2
10,LAYS,≤ 0.2
11,HIIF,≤ 0.2
12,KSPV,≤ 0.2
13,WHRV,≤ 0.2
14,VFER,≤ 0.2
15,PPSN,≤ 0.2
16,PWQT,≤ 0.2
17,GSVC,≤ 0.2
18,RIYA,0.613
19,FTSA,≤ 0.2
20,MQSM,0.22
21,SRVR,≤ 0.2
22,SVSK,≤ 0.2
23,PGAV,≤ 0.2
24,LRIY,≤ 0.2
25,MEGC,≤ 0.2

row,Variant,one-hybrid fitness for binding parS DNA
1,ELTS,≤ 0.2
2,HMSR,≤ 0.2
3,KAWL,≤ 0.2
4,QEYS,≤ 0.2
5,FKVC,≤ 0.2
6,RLCN,0.457
7,ALSI,≤ 0.2
8,ARSP,≤ 0.2
9,NSPD,≤ 0.2
10,APCL,≤ 0.2
11,RYDW,≤ 0.2
12,KLWT,≤ 0.2
13,TPNQ,≤ 0.2
14,SDSM,≤ 0.2
15,ATLW,≤ 0.2
16,WVWG,≤ 0.2
17,NTKC,≤ 0.2
18,PIGF,≤ 0.2
19,QNYM,≤ 0.2
20,QMLT,≤ 0.2
